Measurements reported in ChEMBL document CHEMBL4888484, “Replenishing the malaria drug discovery pipeline: Screening and hit evaluation of the MMV Hit Generation Library 1 (HGL1) against asexual blood stage Plasmodium falciparum ,using a nano luciferase reporter read-out” (2022).
Hit rate of the full screen: of about 150,000 compounds, about 540 (0.36%) showed an effect of 50% or more. This is one part of the list.

system: Plasmodium falciparum; assay: Primary screen in NF54 nanoGlo assay, in single point, at 2uM, 72h; a lower Z score goes with more inhibition; assay type: functional, Erythrocyte; conditions: timepoint 72 hour

Compound	% Inhibition	Z score
COCCC1(NS(C)(=O)=O)CCN(C(=O)c2cnccc2C)CC1	17%	-2.09
Cn1cc(-c2ncccc2CNC(=O)N2CCN(S(C)(=O)=O)C2=O)cn1	-9%	1.44
Cc1ccc(F)cc1NC(=O)c1sc2sc(C(=O)Nc3cc(F)ccc3C)c(N)c2c1N	6%	-0.8
Cc1cc(C)c(S(=O)(=O)NCCn2c(-c3ccc(F)cc3)nc3ccccc32)cc1C	1%	-0.11
COc1cccc2c(=O)c(NC(=O)NCc3ccco3)c[nH]c12	-9%	1.13
COc1cc(F)c(CN(C)Cc2cc(C)no2)c(F)c1	-2%	0.4
Cc1sc2nc(C(F)(F)F)nc(N3CCCN(C(=O)C4CCCC4)CC3)c2c1C	-7%	1.05
CCn1c(=O)c(C(=O)NCC2CCCCC2)nc2cccnc21	-7%	0.78
CCN(Cc1cnc2c(-c3ccccc3)cnn2c1)Cc1ccccc1F	-8%	0.8
O=C(c1cccn2c(=O)c3cc(Cl)ccc3nc12)N1CCN(Cc2ccc3c(c2)OCO3)CC1	-5%	0.61
Cc1n[nH]c(-c2ccc(Br)cn2)n1	1%	-0.21
O=C1CCCN1CCCN(C(=O)c1cc(C2CC2)[nH]n1)C1CCOCC1	-1%	0.21
CN(C(=O)CCCS(C)(=O)=O)c1ccc(-c2ccccc2)cc1	-3%	0.26
CN1CCC2C(CCCN2C(=O)C(=O)Nc2ccccc2Cl)C1 (centres undefined)	9%	-0.99
O=C1C[C@H](CNCc2ncc(Cl)s2)CN1C1CC1	-12%	1.88
O=C(Nc1cc(F)c(OC(F)F)cc1F)N1CCCOCC1	-3%	0.32
O=C(CCCN1C(=O)[C@H]2Cc3ccccc3CN2C1=O)NC[C@H]1CCCN2CCCC[C@@H]12	-5%	0.65
Cc1ccc(C)c(-c2cn3c(C(=O)N(C)Cc4nc(C)no4)csc3n2)c1	2%	-0.28
CC1(C2CCCN(CCOc3cccc(C#N)c3)C2)NC(=O)NC1=O (centres undefined)	25%	-2.84
COc1ccc(CC(=O)N2CCC3(CC2)C[C@@H](CNS(C)(=O)=O)CCO3)cc1	3%	-0.53
CN1C[C@@H](C(=O)N2CCC(c3nccn3CC3CC3)CC2)Oc2ccccc21	-1%	0.14

Compound	% Inhibition	Z score
C[C@H]1CN(C(=O)N2CCC(C(=O)NCCC3=CCCCC3)CC2)c2ccccc2O1	6%	-1.13
CC(=O)Cn1cc(C(F)(F)F)ccc1=O	-1%	0.11
CCC(CC)C(=O)N1CCN(c2ncccc2NC(=O)c2ccc3c(c2)OCO3)CC1	-13%	1.9
Cc1cc(C)n(-c2ccc(C(=O)N3CCCC3)cc2)n1	-10%	1.24
CCCN(CC(=O)N1CCn2cccc2[C@H]1c1ccc(C(C)(C)C)cc1)C(=O)CCc1ccccc1	10%	-1.11
COc1ccc(NC(C)=O)cc1NC(=O)c1cc2c(OC)ccc(OC)c2n1C	10%	-1.21
O=C(O)[C@@H]1CCN(Cc2ccon2)c2ccc(Br)cc21	0%	0.06
Cc1ccsc1[C@H]1CCN(Cc2cc(CC(C)C)[nH]n2)C[C@@H]1O	-2%	0.32
Cc1ccc(CN(C(=O)c2cnc(C)cn2)[C@H]2CCc3ccccc32)cc1	-8%	0.98
Cc1ccc(Cl)cc1N(CCCC(=O)N1CCOCC1)S(C)(=O)=O	-7%	0.81
COc1ccc(S(=O)(=O)c2c(N)n(Cc3ccccc3Cl)c3nc4ccccc4nc23)cc1	-8%	0.71
CCOc1ccc(CNC(=O)c2cnc(N3CCCCCC3)nc2N)cc1	-7%	0.86
COc1ccc(C(=O)N2CCCN(C[C@H]3CN(C(=O)c4ccc(Cl)c(Cl)c4)CCO3)CC2)cc1OC	-3%	0.32
Cc1cc(C(F)(F)F)ccc1OCC(=O)NCC1CCC1	-2%	0.18
Cc1ccn(CCNC(=O)CCc2nc3ncc(Br)cc3[nH]2)n1	-13%	1.96
CC(C)(C)OC(=O)N1CCC(c2c(C(=O)NCCCN3CCCCC3)cnn2-c2ccc(F)cc2F)CC1	-14%	2.47
CN(Cc1ccccc1)C(=O)c1nccnc1NC(=O)c1ccccc1	-12%	1.79
O=C(N1CCOCC1)N1CC[C@@H]2CN(c3ncccn3)C[C@@H]21	-4%	0.7
O=C(c1n[nH]c2c1CCC2)N1CCC[C@H](c2nc3ccccc3s2)C1	-25%	4.34
CN(Cc1cscn1)C1CCC(NC(=O)OC(C)(C)C)CC1 (centres undefined)	-16%	1.33
Cc1nc(O)cc(N2CCC[C@H](c3ccn[nH]3)C2)n1	-4%	0.76
